Source: PubChem BioAssay AID1963576 (National Center for Advancing Translational Sciences (NCATS), 2024)
In all, about 46,000 compounds went through this assay and about 60 (0.1%) were called active. Not shown: some 3% with an inconclusive outcome. Calls come from the whole dose curve; as a rule, active = well fitted inhibition curve with a large enough effect; inconclusive = small, poorly fitted or top-dose-only effect; inactive = no such curve, though single readings can be large or run the other way. The list shows a part of the results.

test: Primary qHTS assay for Inhibitors of ovarian cancer metastasis using an organotypic tumor microenvironment (TME) model.; note: nearly all actives have a fitted effect of over 65% in size;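 for activity change, negative = inhibition: plate controls were DMSO wells for no effect and tomatine positive control wells for full effect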; conditions: SKOV3ip1-GFP adhesion/invasion on 3D omental model, fluorescence; series mostly up to 45.8 µM; activity change, negative = inhibition: at the top concentration
Method in brief: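 Adhesion/invasion was scored as fixed GFP-labeled SKOV3ip1 cell counts (488/509 nm), normalized to DMSO and tomatine controls. Cancer cells in serum-free medium, with four compound doses (0.36-46 umol/L), sat 2 hr at RT then 16 hr at 37 C on a 48 hr fibroblast/mesothelial/ECM culture.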

outcome, inactive:
Cc1cc(C)cc(NC(=O)CCc2nnc3n(CC(C)C)c(=O)c4ccccc4n23)c1, CC(C)Cc1nn2c(=O)cc(COC(=O)c3ccc4c(c3)OCO4)nc2s1, Cc1ccc(NC(=O)Cn2ncn3c(cc4ccccc43)c2=O)c(C)c1, CC(NC(=O)c1ccc2c(c1)N(Cc1ccc(Cl)cc1)C(=O)c1ccccc1S2(=O)=O)c1ccccc1 (centres undefined), O=S(=O)(NCc1ccccc1)c1ccc(-c2cnc(C3CC3)o2)cc1, CCOC(=O)c1sc(NC(=O)c2nc3ncccn3n2)c(C(=O)OC)c1C, CCN1C(C(=O)c2ccccc2)=C(OC(=O)C(C)C)c2ccccc2S1(=O)=O, CCCC(O)c1nc2ccccc2n1CCCCOc1ccc(OC)cc1 (centres undefined), CCOC(=O)c1c(C)[nH]c(C)c1S(=O)(=O)N1CCC(C(=O)NCc2ccc(C)cc2)CC1, CCn1c2c(c(=O)n3ncc(C(=O)Nc4cccc(Cl)c4C)c13)CN(Cc1ccc(OC)cc1)CC2, COc1ccccc1C(=O)NC1(C(F)(F)F)C(=O)Nc2c1c(=O)[nH]c(=O)n2CCc1ccccc1 (centres undefined), Cc1ccc(S(=O)(=O)C(CNC(=O)C(=O)NCCc2ccccc2)c2ccco2)cc1 (centres undefined), CCOc1ccc(CNC(=O)C2CCCN(S(=O)(=O)c3ccc4c(c3)CCCC(=O)N4)C2)cc1 (centres undefined), CCOC(=O)C1=C(CN2CCN(CC)CC2)NC(=O)NC1c1ccc(Cl)cc1 (centres undefined), CCOC(=O)c1scc(-c2ccc(C)cc2)c1S(=O)(=O)Nc1cc(Cl)ccc1OC

Activity change, negative = inhibition, inactive:
CC(C)N(Cc1ccccc1)C(=O)CN1C(=O)COc2ccc(S(=O)(=O)NC3CCCC3)cc21 9.66%, CCOC(=O)c1cc2c(=O)n3ccccc3nc2n(CCCOC)c1=NC(=O)C(C)(C)Oc1ccc(Cl)cc1 2.82%, COc1ccc(Cl)cc1NC(=O)CSc1ccc(-c2sc(C)nc2C)nn1 -3.72%, CCN(CC)S(=O)(=O)c1ccc(NC(=O)CCc2c(C)nc3cc(-c4ccc(Cl)cc4)nn3c2C)cc1 -8.02%, CN(C)c1ccc(C(CNS(=O)(=O)c2ccc(Br)cc2)N2CCCC2)cc1 (centres undefined) -10.1%, CCOc1ccc(C2CC(=O)n3nc(-c4ccc(C)cc4)nc3S2)cc1 (centres undefined) 0.082%, Cc1cc2oc(C(=O)Nc3sc4c(c3C(=O)NCC3CCCO3)CCC4)cc(=O)c2cc1C (centres undefined) 2.14%, O=C(Nc1ccc2oc(-c3cccnc3)nc2c1)c1ccc(-c2ccc(Cl)cc2)o1 7.8%, CCc1ccc(N2C(=O)CC(c3cc(OC)ccc3OC)C3=C2COC3=O)cc1 (centres undefined) -13%, COc1ccc(CNC(=O)CSc2nc3ccsc3c(=O)n2Cc2ccccc2Cl)cc1 -10.6%, CC(=O)Nc1ccc(O)cc1 -7.57%, COc1ccccc1CNC(=O)Cc1csc2nc(-c3ccc(Cl)cc3)cn12 -9.88%, CCOc1ccc(CCNC(=O)Cn2nc(CC)n3c(cc4sc(CC)cc43)c2=O)cc1OCC -6.16%, CCCCCn1c(=N)c(S(=O)(=O)c2ccccc2)cc2c(=O)n3ccccc3nc21 31.6%, CCOc1cc2sc(N3CCC(C(=O)Nc4ccc(C)cc4)CC3)nc2cc1Br -4.91%, CCc1ccc(CSc2nc(-c3ccc(OC)cc3)nc3c2Cc2c(CO)cnc(C)c2O3)cc1 3.82%, COc1ccc(CNC(=O)CN(c2ccccc2OC)S(=O)(=O)c2ccc(C)cc2)cc1 -19.3%, CCn1c(=O)c2cc(C(=O)NC3CCCCCC3)sc2c2ccccc21 -6.72%, O=c1oc2c(CN3CCOCC3)c(O)ccc2cc1-c1ccc(Cl)cc1 -2.23%, CCc1ccccc1NC(=O)Cn1c(=O)nc(-c2ccccc2)c2ccccc21 3.73%, O=C(CCNS(=O)(=O)c1ccc2c(c1)CCN2C(=O)C1CC1)N1CCN(c2ccc(F)cc2)CC1 -2.99%, COc1ccc(CCNC(=O)CCCCn2c(=O)c3ccccc3n(CC(=O)Nc3ccccc3C)c2=O)cc1OC 5.36%, COc1ccc(S(=O)(=O)c2cn(Cc3ccccc3)c3cc(N4CCCC4)c(F)cc3c2=O)cc1 5.05%, Cc1cc(C)cc(NC(=O)CSc2nncn3c2cc2occc23)c1 16.5%, C=C(C)CSc1nc2sc3c(c2c(=O)n1CCCC)CCCC3 -3.76%, COc1ccc(CNC(=O)C2CCN(c3nc4ccc(C)cc4[nH]3)CC2)cc1 -4.88%, Cc1ccc(C)c(CN2CCCN(Cc3cc(C)ccc3C)S2(=O)=O)c1 1.77%, COc1ccc(CNC(=O)c2nnn(CC(=O)Nc3cc(C)cc(C)c3)c2N)cc1 -6.46%, O=C(Nc1ccc(N2CCN(CCOc3ccc(Cl)cc3)CC2)c(C(=O)O)c1)c1ccc(F)cc1 -6.65%, CCCn1c(SCC(O)c2cccc(OC)c2)nc2ccccc21 (centres undefined) -15.9%, CCc1nc2ccccc2n1CCCCOc1ccccc1C -16.3%, COC(=O)c1ccc(-n2c(/C=C\c3cccc(Br)c3)nc3ccccc3c2=O)cc1 -14.2%, Cc1nn(Cc2ccc(Cl)cc2)c(C)c1NC(=O)c1noc2c1CCc1ccccc1-2 -0.987%, CC(C)Oc1ccc(CNC(=O)Cn2c(=O)oc3ccccc32)cc1 -4.24%, CC(C)CCNC(=O)CSc1c2c(nc3ccc(Cl)cc13)CCCC2 -3.35%, Cc1ccc(OCc2nc(-c3ccc(C(=O)N4CCN(c5ccc(Cl)cc5)CC4)cc3)oc2C)cc1 -14.7%, CCCn1c(=O)sc2cc(NC(=O)c3ccccc3OCC)ccc21 6.72%, CCCCCCn1c(CNC(=O)c2ccccc2)nc2ccccc21 -9.53%, Cc1cc(C(=O)NCc2ccccc2C)c2c(C)nn(-c3cccc(F)c3)c2n1 -12.5%, COc1cccc(CNC(=O)Cn2cc3c(n2)-c2c(oc(C(=O)N4CCCC4)c2C)CC3)c1 8.75%, CCc1ccc(NC(=O)Cn2ncc3c4ccccc4n(C)c3c2=O)cc1 6.14%, COc1ccc2c(c1)CCc1c(C(=O)Nc3ccccc3C(F)(F)F)noc1-2 1.36%, O=C(CC1N=C2c3ccccc3N=C(SCc3ccc(F)cc3)N2C1=O)NCc1cccs1 (centres undefined) -0.284%, CC[C@H]1OC(=O)[C@H](C)[C@@H](O[C@H]2C[C@@](C)(OC)[C@@H](O)[C@H](C)O2)[C@H](C)[C@@H](O[C@@H]2O[C@H](C)C[C@H](N(C)C)[C@@H]2O)[C@](C)(OC)C[C@@H](C)C(=O)[C@H](C)[C@@H](O)[C@]1(C)O -2.42%
